Variants at the floor of the assay are shown more often than the library holds them.
B1: TPR 5TU (parent)
chain: GGAUCUUCUCGAUCUAACAAAAAAGACAAAUCUGCCACAAAGCUUGAGAGCAUCUUCGGAUGCAGAGGCGGCAGCCUUCGGUGGCGCGAUAGCGCCAACGUUCUCAACUAUGACACGCAAAACGCGUGCUCCGUUGAAUGGAGUUUAUCAUG

Variants of: B1
Assay: polymerase ribozyme fitness, log enrichment relative to wild type (log ratio); higher = more active; in vitro selection for triplet polymerase activity
How it was run: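 Each subunit of a heterodimeric triplet polymerase ribozyme was mutagenized into a library by PCR, transcribed, and subjected to one round of in vitro selection, run in triplicate. Libraries were annealed with a biotinylated primer, the partner subunit and triplets, incubated frozen at −7 °C, and extended constructs were gel-excised, captured on streptavidin beads and recovered by RT-PCR. Input and output libraries were sequenced on Illumina, keeping genotypes with ≥10 input reads and ≥1 read per output. Fitness is log base 2 of genotype enrichment divided by wild-type enrichment, from inverse-variance-weighted replicate averages.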

Polymerase ribozyme fitness (log ratio), -1.91:
C69A U82G

Polymerase ribozyme fitness (log ratio), -3.27:
C69U C87U G92C A150G

Polymerase ribozyme fitness (log ratio), -2.74:
C69U C85G C149U

Polymerase ribozyme fitness (log ratio), -2.37:
C69A C85U C123A

Polymerase ribozyme fitness (log ratio), -1.12:
C69U C96A

Polymerase ribozyme fitness (log ratio), -1.15:
C69G G94A

Polymerase ribozyme fitness (log ratio), -3.9:
G70C G83A C87U G117C

Polymerase ribozyme fitness (log ratio), -3.4:
C69U C85U U127G

Polymerase ribozyme fitness (log ratio), -2.82:
C69G G84U A89U A122C U146C

Polymerase ribozyme fitness (log ratio), -2.55:
C69A C85A G124U

Polymerase ribozyme fitness (log ratio), -1.74:
C69A A121G

Polymerase ribozyme fitness (log ratio), -2.87:
G67U C118U

Polymerase ribozyme fitness (log ratio), -2.05:
C69G G84A U101C

Polymerase ribozyme fitness (log ratio), ≤ -4.2:
G67U G68A G83U
G67U G92U C96U A113U
G67U G117A U151A
G67U U77G C79G C99U C118U
G67U U109G G141A
G68A A73G C87G G141U
G68A A91U
G68A A91U A107C A110G G141A
G68A A91U C116G
G68A A97U G112U A113U
G68A A113C
G68A A119U A122U U148A
G68A A137U U139A
G68A C75A G128A A150C
G68A C75A U77A C95A A97G
G68A C75G C96U C105G U109A
G68A C85G A120C U148G
G68A C85U C93U
G68A C85U C108A
G68A C87A G88A A142G U145A
G68A C87A G88A C99U C131U
G68A C87G
G68A C87G U104G
G68A C96A G143U U151G
G68A C99U C108A
G68A C108G G141A
G68A C116U
G68A G71C C95A C116U
G68A G71C C96U C125A
G68A G71U G81C C105A C118G
G68A G74C A98G C99U G100A C103A
G68A G80A C87G G88A C108U G140U
G68A G81C G84A A150G
G68A G83C
G68A G83C C118U
G68A G84U C131G G143U
G68A G86C A107U G140U
G68A G86C U101C
G68A G88A U145C
G68A G92C C99A
G68A G100U C108G
G68A G133U
G68A G133U A138U A147U
G68A U151G
G68C A73G C85G C118G U134A
G68C A89C C96A A113G G124C U134C
G68C A89G A98G G100U
G68C A89G G94A A113U
G68C A91U U102G
G68C A122U
G68C A150U
G68C C85G C116A U134G
G68C C87U
G68C C93A
G68C C93A C108G G117A A138G
G68C C93U A113U
G68C C125G
G68C C131U
G68C G80A G81A C85G G86U G100A
G68C G80U A89U C95U U104G
G68C G81U C96U U109C
G68C G83U C103U A106G
G68C G92A U145G A147C
G68C G94A C96G C103G U134A
G68C G94C U111A G133A
G68C G136U A142G
G68C G140U
G68U A89G C93U G117U
G68U A89G C99A U102A
G68U A91G
G68U A91U
G68U A98U C103A A110U
G68U A150G
G68U C75U G83C A89G
G68U C79A U90C C95G C96U U111A U148A U151C
G68U C87A
G68U C95U U102C C123G
G68U C131A
G68U C132U
G68U G71C C96U
G68U G83C A98U U148A
G68U G84A C116G G124A C129A G143U
G68U G84A C118A A122G
G68U G88A
G68U U127G
C69A A73C C76U C85U U146A
C69A A73G A147C U148A A150U U151A
C69A A91U A98C A107G A150C
C69A A91U A107U
C69A C76G C79A U102A G141C
C69A C76U G84U U127A
C69A C85G A106G
C69A C85U C99G C125U
C69A C85U U101G
C69A C93U C103A U139A A142G
C69A G71U C87A A97C
C69A G83C A91C A115G U145C
C69A G88C
C69G A91U A107C G124A U148A
C69G C72U C79A C85U A107G A137U U144A
C69G C75G U101G A150C
C69G C79U A91G C99U A107G
C69G C85A C96A C131U
C69G C87A
C69G C99U G133U
C69G U77A A121G
C69U A91U
C69U C72U U77G A89U C118U U130G U135A
C69U C75A C85G C116G
C69U C75G G152A
C69U C85U A98G A115C G143C
C69U C87A A113G G128C
C69U C87G U148G
C69U C93U U104G C125G G128A
C69U C103G C114U
C69U C118A U127G
C69U G71U C87U A89C U134A G140U
C69U G80A G94A A97U C149G
C69U G81U C95U G112A C114U U135G
C69U G84A A115G G117U G136C
C69U U134A U139G
G70A A89C U139C U144A
G70A A91U
G70A C75U C87G C99G C103A G140U U144G U146G
G70A C79G G81U C95A U139A
G70A C85G A120U G126A U134A
G70A C87A
G70A C87A A89U U101G C118A G124C
G70A C93A
G70A C96G C99U U127C
G70A C96U C103G U109G C132A
G70A C99U U134G G140C G143C
G70A G80C C116U
G70A G140C U148A
G70A U135C U144G
G70C C85U A89C
G70C C87A
G70C C87A G140A
G70C C87A U101A G128A G136U
G70C C87G
G70C C99U G152A
G70C G80A U139C
G70C U101G G136U U145G
G70U A91U C95U
G70U C76G U82A C116U
G70U C79A C96G
G70U C85A C95U U130A

Polymerase ribozyme fitness (log ratio), -3.95:
G68A U130C

Polymerase ribozyme fitness (log ratio), -1.39:
C69U C85U

Polymerase ribozyme fitness (log ratio), -3.44:
G70C G94C

Polymerase ribozyme fitness (log ratio), -4.03:
G68A G94C

Polymerase ribozyme fitness (log ratio), -3.68:
G68A C96U

Polymerase ribozyme fitness (log ratio), -2.33:
C69U C93U

Polymerase ribozyme fitness (log ratio), -1.7:
C69A A120C

Source: the RNAGym collection of RNA variant scans (doi:10.1073/pnas.2313332121)
